Experimental data published in PubChem BioAssay (Tox21).
Values joined by “and” are separate entries in the source; they are usually repeats but may differ in a detail not shown here. Identical values can stand only once. The inconclusive results got no clear call from the source; some entries with a clear call stand among them for comparison. For some of these results: Where the call is inconclusive, the potency comes from a doubtful curve fit. Some structures have more than one record in an assay (separate samples or runs), and their calls can disagree. Active and inactive are the calls of the source. Unless noted, calls come from the whole dose curve.

Assays:
[1] = qHTS assay to identify small molecule antagonists of the sonic hedgehog signaling (Shh) pathway (AID 1259369); note: nearly all actives have a fitted effect of over 45% in size; note: potency is the fitted concentration of half-maximal effect; for activity change, negative = inhibition: % is set by controls: 0 for no effect and ±100 for the full control effect
Method in brief: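 Inhibition of Shh signalling is measured as reduced Gli1-response-element firefly luciferase output in an NIH/3T3-derived stable reporter clone stimulated with conditioned medium for 24hr.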

[2] = qHTS assay to identify small molecule agonists of the estrogen receptor beta (ER-beta) signaling pathway - cell viability counter screen (AID 1259380; active = well fitted curve in the direction sought with a large enough effect in the repeat runs; inconclusive = weak or mixed curves; inactive = no such curve, though single readings can be large; an effect the other way counts as inactive or inconclusive; note: nearly all actives have a fitted effect of over 30% in size; note: potency is the fitted concentration of half-maximal effect)
Method in brief: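 Same-well viability counter screen. Cells: ER-beta-UAS-bla HEK293T, plated 6 hr before compound, in 2% charcoal-stripped FBS. Compound exposure 16 hr, 37C; viability by CellTiter-Glo luminescence after 30 min at room temperature.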

[3] = molecular target: Thyrotropin receptor (Homo sapiens) (UniProt P16473); assay: qHTS assay to identify small molecule antagonists of the thyroid stimulating hormone receptor (TSHR) signaling pathway (AID 1259385); details: TSHR-HEK293 cAMP HTRF, TSH-stimulated antagonist mode; activity change, negative = inhibition: at 92.4 µM (top of the series) unless noted; note: nearly all actives have a fitted effect of over 20% in size; note: potency is the fitted concentration of half-maximal effect; for activity change, negative = inhibition: % is set by controls: 0 for no effect and ±100 for the full control effect
Method in brief: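 TSHR-HEK293 cells (800/well) plated 18 h, then compounds with Ro20-1724 and TSH at 1.5 ng/mL final, 30 min at room temperature. cAMP quantified by HTRF (cAMP-d2/anti-cAMP-cryptate, 1 h); 15 concentrations in triplicate.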

[4] = qHTS assay to identify small molecule agonists of the progesterone receptor (PR) signaling pathway - cell viability counter screen (AID 1346799); note: nearly all actives have a fitted effect of over 45% in size; note: potency is the fitted concentration of half-maximal effect
Method in brief: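 Luminescence from CellTiter-Glo, added after the beta-lactamase FRET read in the same wells, gave cytotoxicity in PR-UAS-bla HEK293T cells treated with compounds for 16 hr at 37C.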

[5] = qHTS assay to identify small molecule antagonists of the TGF-beta/Smad signaling pathway - cell viability counter screen (AID 1346824; active = well fitted curve in the direction sought with a large enough effect in the repeat runs; inconclusive = weak or mixed curves; inactive = no such curve, though single readings can be large; an effect the other way counts as inactive or inconclusive; note: potency is the fitted concentration of half-maximal effect; nearly all actives have a fitted effect of over 50% in size)
Method in brief: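 SBE-bla HEK 293T cells, incubated overnight, then compound plus 0.25 ng/mL TGF-beta1 (stock added) for 5 hr at 37 C. Viability was read in the same wells by CellTiter-Glo luminescence after 30 min at room temperature.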

[6] = qHTS assay to identify small molecule agonists of the androgen receptor (AR) signaling pathway in the presence of an antagonist - cell viability counter screen (AID 1259379; active = well fitted curve in the direction sought with a large enough effect in the repeat runs; inconclusive = weak or mixed curves; inactive = no such curve, though single readings can be large; an effect the other way counts as inactive or inconclusive; note: nearly all actives have a fitted effect of over 25% in size; note: potency is the fitted concentration of half-maximal effect)
Method in brief: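 Fluorescence from CellTiter-Fluor, added after 15 hr and read 1 hr later, gave cell viability. Cells were MDA-kb2 exposed to compounds (15 concentrations) in the presence of 3.0uM nilutamide at 37C, 0% CO2.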

[7] = qHTS assay to identify small molecule antagonists of the estrogen receptor beta (ER-beta) signaling pathway - cell viability counter screen (AID 1259382; active = well fitted curve in the direction sought with a large enough effect in the repeat runs; inconclusive = weak or mixed curves; inactive = no such curve, though single readings can be large; an effect the other way counts as inactive or inconclusive; note: potency is the fitted concentration of half-maximal effect; nearly all actives have a fitted effect of over 55% in size)
Method in brief: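 Following a 6 hr plating period, HEK293T cells carrying a UAS-driven beta-lactamase reporter under ER-beta control received compounds and 1nM E2 (final). After 16 hr at 37C and 2 hr substrate loading, CellTiter-Glo luminescence indicated viability.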

[8] = qHTS assay to identify small molecule agonists of the estrogen receptor alpha (ER-alpha) signaling pathway in the presence of an antagonist - cell viability counter screen (AID 1259386; active = well fitted curve in the direction sought with a large enough effect in the repeat runs; inconclusive = weak or mixed curves; inactive = no such curve, though single readings can be large; an effect the other way counts as inactive or inconclusive;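 note: potency is the fitted concentration of half-maximal effect; cells exposed to compounds for 22 h at 37 °C before the viability read; nearly all actives have a fitted effect of over 30% in size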)
Method in brief: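 Cells are starved of estrogens for 5 days in charcoal-stripped serum, seeded for 24hr and co-treated with ICI-182,780 (10.0nM final) and test compounds. After 22hr at 37C, viability is read as CellTiter-Fluor fluorescence.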

[9] = molecular target: Progesterone receptor (Homo sapiens) (UniProt P06401); assay: qHTS assay to identify small molecule antagonists of the progesterone receptor (PR) signaling pathway (AID 1346795; active = well fitted inhibition curve with a large enough effect in the signal ratio in the repeat runs, not every such curve was filed as active; inconclusive = weak or mixed curves; the % refers to the signal ratio; note: potency is the fitted concentration of half-maximal effect; for activity change, negative = inhibition: % is set by controls: 0 for no effect and ±100 for the full control effect); details: PR-UAS-bla HEK293T, beta-lactamase FRET ratio, 16 h; activity change, negative = inhibition: at 92.4 µM (top of the series) unless noted
Method in brief: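 Read-out is fluorescence from the LiveBLAzer B/G FRET substrate, cleaved by a UAS-controlled beta-lactamase in PR-UAS-bla HEK293T cells after 16 hr exposure to compound plus 1 nM promegestone (final), followed by 2 hr at room temperature.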

[10] = molecular target: Progesterone receptor (Homo sapiens) (UniProt P06401); assay: qHTS assay to identify small molecule agonists of the progesterone receptor (PR) signaling pathway (AID 1346784); details: PR-UAS-bla HEK293T, beta-lactamase FRET ratio, 16 h; activation: at 92.4 µM (top of the series) unless noted; note: % is set by controls: 0 for no effect and ±100 for the full control effect; nearly all actives have a fitted effect of over 30% in size
Method in brief: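 Beta-lactamase reporter read-out: after 16 hr compound treatment at 37C and a further 2 hr at room temperature with LiveBLAzer B/G FRET substrate, fluorescence was measured in PR-UAS-bla HEK 293T cells grown in 2% charcoal-stripped serum.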

[11] = qHTS assay to identify small molecule antagonists of the progesterone receptor (PR) signaling pathway - cell viability counter screen (AID 1346798; active = well fitted curve in the direction sought with a large enough effect in the repeat runs; inconclusive = weak or mixed curves; inactive = no such curve, though single readings can be large; an effect the other way counts as inactive or inconclusive; note: nearly all actives have a fitted effect of over 50% in size; note: potency is the fitted concentration of half-maximal effect)
Method in brief: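 HEK293T PR-UAS-bla, 2% charcoal-stripped FBS; 4 hr pre-plate; cpd + R5020, 16 h 37C; LiveBLAzer read first; then CellTiter-Glo 30 min RT, luminescence.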

[12] = molecular target: Estrogen receptor beta (Homo sapiens) (UniProt Q92731); assay: qHTS assay to identify small molecule antagonists of the estrogen receptor beta (ER-beta) signaling pathway (AID 1259378; active = well fitted inhibition curve with a large enough effect in the signal ratio in the repeat runs, not every such curve was filed as active; inconclusive = weak or mixed curves, or effect the other way; inactive = no such curve, though single readings can be large or run the other way; the % refers to the signal ratio; note: % is set by controls: 0 for no effect and ±100 for the full control effect); details: ER-beta-UAS-bla HEK293T, beta-lactamase FRET ratio, 16 h; activity, negative = inhibition: at 92.4 µM (top of the series) unless noted
Method in brief: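 ER-beta-UAS-bla HEK293T cells in 2% charcoal-stripped FBS medium treated with compound plus 1nM final 17-beta-estradiol for 16 hr at 37C. Beta-lactamase reporter read by FRET substrate fluorescence after 2 hours at room temperature.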
Tags give direction and shape of the fitted curve.

UniProt P06401, sequence (P06401 whole entry, looked up): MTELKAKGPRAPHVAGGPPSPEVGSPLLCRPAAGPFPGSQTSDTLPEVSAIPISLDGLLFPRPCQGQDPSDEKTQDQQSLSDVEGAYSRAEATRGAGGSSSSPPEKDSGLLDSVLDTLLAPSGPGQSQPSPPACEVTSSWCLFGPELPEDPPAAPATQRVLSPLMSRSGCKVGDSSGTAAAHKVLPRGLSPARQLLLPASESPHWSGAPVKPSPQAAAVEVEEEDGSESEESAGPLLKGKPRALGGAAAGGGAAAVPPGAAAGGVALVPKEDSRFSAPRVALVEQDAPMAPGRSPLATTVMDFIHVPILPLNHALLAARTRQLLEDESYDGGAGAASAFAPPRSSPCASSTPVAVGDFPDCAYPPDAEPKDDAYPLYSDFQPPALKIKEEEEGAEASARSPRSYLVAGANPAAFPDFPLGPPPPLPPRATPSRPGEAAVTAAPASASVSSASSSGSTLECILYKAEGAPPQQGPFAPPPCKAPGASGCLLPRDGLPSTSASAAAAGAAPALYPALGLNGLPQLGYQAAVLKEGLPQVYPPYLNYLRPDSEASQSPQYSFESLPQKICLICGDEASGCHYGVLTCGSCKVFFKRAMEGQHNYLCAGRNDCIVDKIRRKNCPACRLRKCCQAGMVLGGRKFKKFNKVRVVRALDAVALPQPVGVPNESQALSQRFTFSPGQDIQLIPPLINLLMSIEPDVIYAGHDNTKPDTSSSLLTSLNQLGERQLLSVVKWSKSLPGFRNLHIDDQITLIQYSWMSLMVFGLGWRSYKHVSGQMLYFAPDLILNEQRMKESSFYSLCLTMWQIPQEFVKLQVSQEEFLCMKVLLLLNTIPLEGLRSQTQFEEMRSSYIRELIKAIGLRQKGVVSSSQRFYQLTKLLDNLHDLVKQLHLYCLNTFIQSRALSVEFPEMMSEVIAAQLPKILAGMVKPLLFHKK
UniProt Q92731, sequence (Q92731 whole entry, looked up): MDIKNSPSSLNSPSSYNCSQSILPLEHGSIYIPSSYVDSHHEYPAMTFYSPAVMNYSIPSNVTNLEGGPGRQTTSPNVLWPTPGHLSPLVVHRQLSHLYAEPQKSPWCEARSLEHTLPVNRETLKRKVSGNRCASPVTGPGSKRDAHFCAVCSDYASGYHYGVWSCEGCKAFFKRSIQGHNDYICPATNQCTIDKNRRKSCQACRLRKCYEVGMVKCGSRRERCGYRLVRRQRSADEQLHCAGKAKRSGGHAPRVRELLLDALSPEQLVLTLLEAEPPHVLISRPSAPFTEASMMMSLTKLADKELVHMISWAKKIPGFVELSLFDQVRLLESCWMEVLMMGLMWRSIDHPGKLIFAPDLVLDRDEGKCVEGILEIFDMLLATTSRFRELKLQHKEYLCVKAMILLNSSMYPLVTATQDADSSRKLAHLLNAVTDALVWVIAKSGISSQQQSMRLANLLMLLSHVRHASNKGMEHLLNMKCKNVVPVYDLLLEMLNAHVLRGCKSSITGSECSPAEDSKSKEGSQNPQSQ
UniProt P16473, sequence (P16473 whole entry, looked up): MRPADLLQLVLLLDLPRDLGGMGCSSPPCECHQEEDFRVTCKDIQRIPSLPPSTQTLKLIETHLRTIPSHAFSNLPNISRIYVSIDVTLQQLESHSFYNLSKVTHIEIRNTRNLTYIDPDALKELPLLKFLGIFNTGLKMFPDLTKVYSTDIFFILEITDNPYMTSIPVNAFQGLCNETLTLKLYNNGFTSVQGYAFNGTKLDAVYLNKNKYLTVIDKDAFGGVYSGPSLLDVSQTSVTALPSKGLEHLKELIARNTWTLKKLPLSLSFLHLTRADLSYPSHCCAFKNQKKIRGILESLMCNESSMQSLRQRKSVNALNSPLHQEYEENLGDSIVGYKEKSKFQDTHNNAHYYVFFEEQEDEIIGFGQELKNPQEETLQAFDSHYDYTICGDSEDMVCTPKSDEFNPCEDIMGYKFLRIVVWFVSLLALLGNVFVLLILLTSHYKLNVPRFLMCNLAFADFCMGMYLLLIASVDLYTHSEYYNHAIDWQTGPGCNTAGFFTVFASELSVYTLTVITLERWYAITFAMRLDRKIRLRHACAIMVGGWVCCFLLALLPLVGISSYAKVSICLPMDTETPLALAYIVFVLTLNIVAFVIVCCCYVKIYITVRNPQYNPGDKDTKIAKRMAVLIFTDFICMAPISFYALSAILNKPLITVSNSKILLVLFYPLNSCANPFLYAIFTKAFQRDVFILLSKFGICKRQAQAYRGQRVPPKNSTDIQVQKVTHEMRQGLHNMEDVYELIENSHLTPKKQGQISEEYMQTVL

## Nc1ccc([N+](=O)[O-])cc1N
[1]
  Potency: inconclusive: 13.7 µM [inhibitor, full curve]
[2]
  Potency: active: 21.7 µM
[3]
  Potency: inconclusive: 43.2 µM [falling, partial curve]
  activity change, negative = inhibition: inconclusive: 4.52%
[4]
  Potency: inconclusive: 54.4 µM [cytotoxic, partial curve]
[5]
  Potency: inconclusive: 21.9 µM [cytotoxic, single point]

## Cc1ccccc1OP(=O)(Oc1ccccc1C)Oc1ccccc1C
[1]
  Potency: inconclusive: 77.3 µM [inhibitor, single point]
[6]
  Potency: inactive
[2]
  Potency: inconclusive: 38.7 µM [cytotoxic, partial curve]
[7]
  Potency: inconclusive: 38.7 µM [cytotoxic, partial curve]
[8]
  Potency: inconclusive: 4.35 µM [cytotoxic, full curve, poor fit]
[9]
  Potency: inconclusive: 15.4 µM [rising, full curve]

## COP(=O)(OC)O/C(=C/Cl)c1cc(Cl)c(Cl)cc1Cl
[1]
  Potency: active: 57.5 µM
[6]
  Potency: inconclusive: 45.7 µM [cytotoxic, partial curve]
[2]
  Potency: inconclusive: 28.8 µM [cytotoxic, single point]
[10]
  activation: inconclusive: -4.99%
[9]
  Potency: active: 14.5 µM

## Cc1cc(C(C)(C)c2ccc(O)c(C)c2)ccc1O
[1]
  Potency: active: 16.4 µM
[2]
  Potency: active: 29.2 µM
[8]
  Potency: inconclusive: 65.3 µM [cytotoxic, single point]
[9]
  Potency: inconclusive: 4.62 µM [rising, partial curve, poor fit]
[11]
  Potency: inconclusive: 73.3 µM [cytotoxic, single point]
[4]
  Potency: inconclusive: 20.7 µM [rising, partial curve]

## O=C(O)C(Br)Br
[1]
  Potency: inconclusive: 6.86 µM [inhibitor, single point]
[12]
  Potency: inactive
[9]
  Potency: inactive
[4]
  Potency: inactive

## CC(C)C(Br)C(=O)NC(N)=O (centres undefined)
[1]
  Potency: inactive
[2]
  Potency: inactive
[9]
  Potency: inactive
[11]
  Potency: inactive

## CCN(CC)c1c([N+](=O)[O-])cc(C(F)(F)F)c(N)c1[N+](=O)[O-]
[1]
  Potency: active: 9.69 µM
[2]
  Potency: inconclusive: 30.6 µM [cytotoxic, partial curve]
[3]
  activity change, negative = inhibition: inconclusive: 11.4%
[8]
  Potency: inconclusive: 54.5 µM [cytotoxic, partial curve, poor fit]
[9]
  Potency: inconclusive: 27.3 µM [partial curve]
[11]
  Potency: inconclusive: 27.3 µM [cytotoxic, full curve]
[4]
  Potency: inconclusive: 0.545 µM [rising, partial curve]

## c1ccc2c(c1)CCNC2
[1]
  Potency: inconclusive: 70.3 µM [inhibitor, single point]
[12]
  Potency: inactive
[9]
  activity change, negative = inhibition: inconclusive: -3.3%

## CNC(=O)Oc1cccc2ccccc12
[1]
  Potency: inconclusive: 15.4 µM [inhibitor, full curve]
[6]
  Potency: inconclusive: 68 µM [cytotoxic, partial curve, poor fit]
[9]
  Potency: active: 27.1 µM and active: 30.6 µM
  activity change, negative = inhibition: inconclusive: -40.3% [at 42.5 µM]
[4]
  Potency: inconclusive: 2.37 µM [rising, partial curve, poor fit]

## Nc1cccc2ccccc12
[1]
  Potency: inconclusive: 6.9 µM [inhibitor, full curve] and inconclusive: 13.7 µM [inhibitor, full curve]
[2]
  Potency: inconclusive: 61.1 µM [cytotoxic, single point]
[3]
  Potency: inconclusive: 77 µM [falling, partial curve, poor fit]
[8]
  Potency: inconclusive: 13.7 µM [cytotoxic, single point]
[9]
  Potency: inconclusive: 48.6 µM [falling, partial curve, poor fit]
  activity change, negative = inhibition: inconclusive: -33.6%
[4]
  Potency: inconclusive: 19.4 µM [cytotoxic, single point]

## COc1ccc2c3c1O[C@H]1[C@H](O)CC[C@H]4[C@@H](C2)N(C)CC[C@@]341
[1]
  Potency: inconclusive: 67.5 µM [inhibitor, single point]
[2]
  Potency: inactive
[3]
  Potency: inactive
[11]
  Potency: inconclusive: 60.1 µM [cytotoxic, partial curve]
[4]
  Potency: inconclusive: 0.601 µM [cytotoxic, single point]

## CCCCCCCCCCCCN=C(N)N
[1]
  Potency: active: 0.671 µM
[2]
  Potency: inconclusive: 0.533 µM [cytotoxic, full curve]

## O=C1C(Cl)C(CCl)CN1c1cccc(C(F)(F)F)c1 (centres undefined)
[1]
  Potency: inconclusive: 34.4 µM [inhibitor, partial curve, poor fit]
[2]
  Potency: inconclusive: 30.6 µM [cytotoxic, partial curve]
[9]
  Potency: active: 30.6 µM
[11]
  Potency: active: 0.864 µM
